# Measured values: PubChem BioAssay AID588855 (National Center for Advancing Translational Sciences (NCATS), 2011)
# Out of some 410,000 compounds screened, about 5,000 (1.2%) were called active. Inconclusive means that the source gave no clear call. Such entries were picked first, then a sample of the others. The call rests on the fitted dose curve; in most records, active means well fitted inhibition curve with a large enough effect; inconclusive means small, poorly fitted or top-dose-only effect; inactive means no such curve, though single readings can be large or run the other way. Where the call is inconclusive, the potency comes from a doubtful curve fit.
# Assay: qHTS for Inhibitors of TGF-b; further: nearly all actives have a fitted effect of over 65% in size
# Conditions: HepG2 CAGA-GFP TGF-b/SMAD3 reporter, GFP fluorescence, 18 h, TGF-beta stimulated, 500 pg/mL final; series mostly up to 46.1 µM; activity, negative = inhibition: at the top concentration
# Procedure, shortened: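 Inhibition was scored as loss of TGF-beta-induced (500 pg/mL final, 18 hours, 37 degrees C) GFP in HEPG2 cells carrying a CAGA-GFP reporter, in DMEM with 1% FBS. Well GFP was summed per cell; Activity was normalised to unstimulated and stimulated DMSO wells, then concentration-response fitting.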
# On the % scale 0 is the no-effect control and ±100 the full control effect; potency means the concentration at half of the fitted maximal effect; tags describe the fitted curve by direction and shape.
SMILES,"activity, negative = inhibition",Potency
COc1ccccc1NC(=O)c1sc2nc(C)c(C(=O)Nc3ccc(C)cc3C)c(-c3ccccc3Cl)c2c1N,inactive: 0.0237%,–
Cc1[nH]c2ccccc2c1/C=N/NC(=O)C1CC1(c1ccccc1)c1ccccc1 (stereo not drawn),–,"inconclusive: 31.6 µM [inhibitor, partial curve, poor fit]"
Cc1ccc(SCCCCN2CCNCC2)cc1,inactive: -0.528%,–
CC(C)COC(=O)N1CCCC(c2cc(C(=O)Nc3ccccc3Cl)no2)C1 (stereo not drawn),inactive: -2.9%,–
Cc1ccc(Sc2ccc(S(=O)(=O)Nc3ccc(C(=O)O)cc3)cc2)cc1C,–,"inconclusive: 14.1 µM [inhibitor, single point]"
Cc1cccc(CNC(=O)CN2C(=O)CCn3nc(-c4cn(C)c5ccccc45)cc32)c1,–,"inconclusive: 7.08 µM [inhibitor, partial curve, poor fit]"
Cn1nccc1C(=O)N1CCN(c2ccc(F)cc2)CC1,–,"inconclusive: 7.94 µM [inhibitor, partial curve, poor fit]"
COC(=O)c1ccc2c(c1)N(Cc1ccccc1)C(=O)c1ccccc1S2(=O)=O,–,"inconclusive: 5.01 µM [inhibitor, full curve, poor fit]"
O=C(COC(=O)/C=C/c1cccc(F)c1)NC1CCCCCC1,–,"inconclusive: 20 µM [inhibitor, single point]"
O=c1cc(-c2ccccc2[N+](=O)[O-])oc2ccccc12,inactive: -18.7%,–
OC1(c2ccc(Cl)c(Cl)c2)C[n+]2ccccc2N1Cc1ccccc1 (stereo not drawn),–,"inconclusive: 35.5 µM [inhibitor, single point]"
CCc1noc(C)c1C(=O)Nc1nc2c(F)cc(F)cc2s1,–,"inconclusive: 35.5 µM [inhibitor, single point]"
COc1ccccc1NC(=O)c1sc2nc3n(c(=O)c2c1C)N=C(c1cccc(Br)c1)CS3,inactive: -19.1%,–
CN(C)c1ccc(-c2nn3c(-c4ccccc4Cl)nnc3s2)cc1,–,"inconclusive: 5.62 µM [inhibitor, full curve]"
Cc1nc(NCc2cccnc2)c2c3c(sc2n1)CC(C)CC3 (stereo not drawn),–,"inconclusive: 14.1 µM [inhibitor, single point]"
O=C(CN1CCN(Cc2ccccc2Cl)C1=O)NCCc1ccc(Cl)cc1,–,"inconclusive: 35.5 µM [inhibitor, single point]"
CCOC(=O)C1CCCN(C(=O)COC(=O)C2=COCCO2)C1 (stereo not drawn),–,"inconclusive: 4.47 µM [inhibitor, partial curve, poor fit]"
O=C(CN1CCN(c2cccc(C(F)(F)F)c2)CC1)Nc1cccc(C(F)(F)F)c1,–,"inconclusive: 35.5 µM [inhibitor, single point]"
COc1cc(NS(=O)(=O)c2ccc(-c3cc(C)no3)cc2)cc(OC)c1,–,"inconclusive: 35.5 µM [inhibitor, single point]"
COc1cccc(NC(=O)CN(C)C(=O)CSCC(=O)Nc2ccc(C)cc2)c1,inactive: -2.13%,–
CCCc1ccc2oc(C(=O)N3CCN(C4CCS(=O)(=O)C4)CC3)c(C)c2c1 (stereo not drawn),inactive: -12.7%,–
O=C(CN(C1CCCCC1)S(=O)(=O)c1ccc(Br)cc1)NCc1cccnc1,–,"inconclusive: 20 µM [inhibitor, single point]"

SMILES,"activity, negative = inhibition",Potency
COC(=O)C1=C(C)N(Cc2ccccc2)C(=S)N[C@H]1c1ccccc1,–,"inconclusive: 14.1 µM [inhibitor, single point]"
CCCCC(=O)Nc1ccc(NC(=O)c2ccc([N+](=O)[O-])cc2)cc1OC,–,"inconclusive: 7.08 µM [inhibitor, full curve, poor fit]"
COC(=O)Cn1c(=NC(=O)c2cc(-c3cccs3)nc3ccccc23)sc2cc(S(N)(=O)=O)ccc21,–,"inconclusive: 35.5 µM [inhibitor, single point]"
CCCNC(=O)C(Cc1ccccc1)NS(=O)(=O)c1ccc2c(c1)c(=O)n(C)c(=O)n2C (stereo not drawn),–,"inconclusive: 6.31 µM [inhibitor, single point]"
Cn1nc(C(=O)NC2CCCCC2)c2ccccc2c1=O,inactive: 0%,–
c1ccc(CN2CCN(C(c3ccccc3)c3nnnn3Cc3ccccc3)CC2)cc1 (stereo not drawn),–,"inconclusive: 35.5 µM [inhibitor, single point]"
c1ccc(-c2nc(NCC3CC3)nc3ccsc23)cc1,inactive: -4.53%,–
N/C(=N\OC(=O)c1cccc(Br)c1)c1ccc(Br)cc1,inactive: -3.49%,–
Cc1nnsc1NC(=O)OCc1ccc(C(F)(F)F)cc1,–,"inconclusive: 35.5 µM [inhibitor, single point]"
CC(C)Oc1ccc(F)cc1-c1cc(C(=O)NCc2cc(C(F)(F)F)cc(C(F)(F)F)c2)[nH]n1,–,active: 11.2 µM
CCOC(=O)COc1cccc(C2NC(=O)c3ccccc3O2)c1 (stereo not drawn),–,"inconclusive: 35.5 µM [inhibitor, single point]"
Cc1ccc(O)c(-c2n[nH]c3c2C(c2ccc(F)cc2)N(Cc2ccco2)C3=O)c1 (stereo not drawn),–,"inconclusive: 25.1 µM [inhibitor, single point]"
Oc1ccc(-c2nccc(-c3ccc(Br)cc3)n2)cc1,–,"inconclusive: 35.5 µM [inhibitor, single point]"
Cn1nc(-c2ccccc2)cc1NC(=O)Nc1ccc(C(C)(C)C)cc1,–,"inconclusive: 12.6 µM [inhibitor, partial curve, poor fit]"
Cc1cccc(Oc2sc(C(=O)c3ccccc3)c(N)c2C#N)c1C,–,"inconclusive: 28.2 µM [inhibitor, single point]"
O=C1OCCN1C(=O)[C@H]1[C@H](c2ccc(F)cc2)C(c2ccccc2)=NN1c1ccc(Br)cc1,–,"inconclusive: 17.8 µM [inhibitor, single point]"
CCCCNC(=O)c1nc(C2CCN(S(=O)(=O)c3ccccc3C(F)(F)F)CC2)oc1-c1cccc(C(F)(F)F)c1,inactive: -4.35%,–
COC(=O)c1cc(C(=O)OC)n(Cc2ccc(C)cc2)c1C,inactive: 8.38%,–
COc1ccc(-n2c(COc3ccc4ccccc4c3)nnc2SCC(=O)NCc2ccco2)cc1,–,"inconclusive: 12.6 µM [inhibitor, single point]"
Cc1cccc(CN2C(=O)N/C(=C/c3cc(C)n(-c4cc(C)ccn4)c3C)C2=O)c1,inactive: -6.02%,–
COc1ccc(-c2cc(C(F)(F)F)nc(NCc3ccc(F)cc3)n2)cc1,–,"inconclusive: 35.5 µM [inhibitor, single point]"
